Experimental data: the supplement of paper PMC10338343
± gives the standard deviation. Over roughly 5,500 sequences, “pre-steady-state target cleavage rate” has its median near 0.1; the highest 2% begin near 0.64. The list shows a part of the results, in another mix than the full data.

tested on: MIWI (PIWIL1) piRISC loaded with piRNA #2 (30 nt); experiment: pre-steady-state target cleavage rate (min^-1); MIWI and MILI are mouse PIWI proteins and EfPiwi is from a freshwater sponge; tags in brackets are library labels; higher = faster piRNA-guided slicing of the target; conditions: guide: piRNA #2 5'p-UUAGGUAACCCAGUAGAUCCAGAGGAAUUC; auxiliary factor: 500 nM mouse GTSF1
How it was run: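 A transcribed, DNA-blocked target RNA library […] was incubated at 33 °C for 0–8 or 0–960 min with 1 nM active affinity-purified piRISC carrying one synthetic guide, in HEPES–potassium acetate buffer with or without 500 nM GTSF1 partner protein. Uncleaved targets were then sequenced and normalised to depth and to weakly complementary targets. Data from three trials were pooled, with k3 capped at 0.0001 min^-1, and a burst-and-steady-state fit yielded the pre-steady-state cleavage rate.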

Sequence	pre-steady-state target cleavage rate
CUAUUGCUCUGGAACUACUGGGUUACCUAA	0.212 ± 0.034
CUUAUCCUCUGGAACUACUGGGUAACCUAA	0.116 ± 0.017
CUUAUCCUGUGGAACUACUGGGUUACCUAA	0.157 ± 0.049
CUAUUCCUCUGGAUCUACUGGGUUACGAUA	0.284 ± 0.057
CUAUUCCUCUCGAUCUACUGGGUUACCUAA	0.734 ± 0.063
CUUUUCCUCUGGAUGUACUGGGUUACCUAA	0.464 ± 0.038
CUAUUCCUCUGGAUCUACUGCGUUUCCUAA	0.0815 ± 0.022
CUUAACCUGAGGAUCUACUGGGUUACCUAA	0.0797 ± 0.012
GAAUUCCUCUGGAUCGUACUGGGUUACCUAA	0.00833 ± 0.0048
CUUAUCCUCUGCUUCUACUGGGUUACCUAA	0.318 ± 0.031
CUUAACCACUCGAUCUACUGGGUUACCUAA	0.347 ± 0.028
CUUUUCCUGUGGAUCUACAGGGUUACCUAA	0.288 ± 0.02
CAAUUCCUCUAGGAUCUACUGGGUUACCUAA	0.434 ± 0.048
CUUAAGGUCUGCAUCAACUGGGUUACCUAA	0.0597 ± 0.029
GAAUUCCUCUGGAUGUACUGGGUUACGUAA	0.549 ± 0.042
CUUAAGGAGUGGAUCUACUGGGUAUACCUAA	0.0219 ± 0.0075
CAAUUCCUCUGGAUCAACUGGGUUACCAAA	0.353 ± 0.054
CUUAAGGUCAGGAUCUACUGGCUUACCUAA	0.0146 ± 0.0098
CUUAAGGAGUGGAUCAACUGCGUUACCUAA	0.00804 ± 0.0051
CUUAAGGUCUAGGAUCUACUGGGUUACCUAA	0.0921 ± 0.021
CUUAAGGUGUGGAUCUACUGGCUUACCUAA	0.0225 ± 0.015
GAUUUCCUCUGGAUCUACUGGGUUUCCUAA	0.155 ± 0.033
CUUAAGGAGAGGAUCUACAGCGUUACCUAA	0.00335 ± 0.0028
CAAUUCCUCUGGAUCUACUGGGUUACCUAAA	0.466 ± 0.063

Sequence	pre-steady-state target cleavage rate
CUUAUCCUCUGGAUCUACUGGGUAAGCUAA	0.189 ± 0.052
GAAUACCUCUGGAUCUACUGCGUUACCUAA	0.456 ± 0.04
CUUAUCCUCUGGAUCUUCUGGGUAACCUAA	0.0522 ± 0.013
CAAUUCGUCUGGAUCUACUCGGUUACCUAA	0.0421 ± 0.022
CUUAAGGUCUGGAUCUACUGGGUUACUUAA	0.422 ± 0.044
CAAUUCCUCUGGAUCUACUGGGUUACCUA	0.484 ± 0.057
CUUAAGGAGACGAUCUACUGGGUUACGUAA	0.00601 ± 0.003
CAAUACCUCUGGAUCUACUGGGUUACCUAA	0.395 ± 0.06
CUAUUGCUCUGGAUCUACUGGGAUACCUAA	0.142 ± 0.029
CUUAUCCUCACCAUCUACUGGGUUACCUAA	0.246 ± 0.038
CUUAACCUCUGCAUCUACUGGGUUACCAAA	0.133 ± 0.02
CAAUUCCUCUGGAUCUAGUGGGUUACCUAA	0.239 ± 0.031
CUUAAGGUCAGGAUCUACUGGGUUAGCUAA	0.00922 ± 0.0075
CUUAACCUUCUGGAUCUACUGGGUUACCUAA	0.281 ± 0.028
CUAUUCCUCUCGAUCUACUGGGUUAGCUAA	0.522 ± 0.044
CUUUUCUUCUGGAUCUACUGGGUUACCUAA	0.428 ± 0.038
CUUAACCUCUGGAUGAUCUGGGUUACCUAA	0.0136 ± 0.003
CUUUUCCUCUCGAUCUACUCGGUUACCUAA	0.185 ± 0.013
CUUAACCUCUGGAUCUACUGCGUUACCUUA	0.231 ± 0.027
CUUAACCUCUCGAUCUACUGGGUUACCUUA	0.373 ± 0.034
CUUAUCCUCUGGAUGUACUGGGUAACCUAA	0.131 ± 0.04
CAAUUCCUCUGGAUCUACUCGGUUACGUAA	0.127 ± 0.061
CUUAAGGAGUGGAUCUACUGGGUUACCGUAA	0.0283 ± 0.01
CUUAACCACUGGAUCAACUGGGUUACCUAA	0.232 ± 0.019

Sequence	pre-steady-state target cleavage rate
CUAUUCCUCUCGAUCUACUGGGAUACCUAA	0.523 ± 0.032
CUUAAGGACUGGAUCUAGUGGGUUACCUUA	0.0229 ± 0.011
CUUAACCUCUGGAUCAACUGGGUAACCUAA	0.0539 ± 0.0079
CUUAUCCUCUCGAACUACUGGGUUACCUAA	0.365 ± 0.03
CUUAACCUCUGGAUCUACUGGGUUACCUCA	0.122 ± 0.016
GAAUUCCUCUGGAUCUUCUCGGUUACCUAA	0.0738 ± 0.018
CUUAAGGAGUGGAUCUACUGGGUUGACCUAA	0.09 ± 0.028
CAAUUCCACUGGAUCUACUGGGUUACCAAA	0.456 ± 0.083
CUUAACCUCCGGAUCUACUGGGUUACCUAA	0.4 ± 0.059
CUAUUCCUCUGGUUCUACUGGGAUACCUAA	0.125 ± 0.036
CUUAAGGACUGGAUCUAGUGGGUUACCUAA	0.0778 ± 0.026
CUUAACCUCUGGAUCUACUGGGAUACCAAA	0.0873 ± 0.019
GAAUUCCUCUGGUUCAACUGGGUUACCUAA	0.524 ± 0.042
GAAUUCCGUCUGGAUCUACUGGGUUACCUAA	0.483 ± 0.044
CUUAAGGAGAGGUUCUACUGGGUUACCUUA	0.00328 ± 0.0022
CUAUUCCUCUGGUUCUACUGGGUUACCUAA	0.711 ± 0.043
CUUUUCCUCUGGAUGUACUCGGUUACCUAA	0.0968 ± 0.023
GAAUUCCACUGGAUCUACUGGGUUACGUAA	0.803 ± 0.043
CUUAACCUCUGGAUGUAGUGGGUUACCUAA	0.0937 ± 0.011
CUUAACCUCUGGAUGUACUGGGUUUCCUAA	0.069 ± 0.015
CUUAACCUCAGGAUCUACUGGGUUACGUAA	0.289 ± 0.038
CUUAAGCUCUGGAUCAACUGGGUUACCUAA	0.0889 ± 0.013
CAAUUCCUCUGGAUCUACUCGGUUACCUAA	0.103 ± 0.022
CUUUUCCUCUGGAUCUACUGGGUUACGCUAA	0.601 ± 0.049
